Experimental data: PubChem BioAssay AID463173 (ICCB-Longwood Screening Facility, Harvard Medical School, 2010)
About 4,300 (8.3%) of roughly 52,000 compounds were called active. No stated cut-off is given here; in the data, active means survival mostly below about 52% (no sharp cut-off); inactive means mostly above about 56%. Some of the results follow.

Tested on: DeltatarO mutant
Assay: S. aureus survival, RN4220 and DeltatarO strains – OD600, teichoic acid synthesis inhibitors, primary screen (AID 463173)
Conditions: S. aureus RN4220 wild type/DeltatarO growth, OD600, 18 h, stronger effect = lower value, screened at 18.75 µg/mL (by protocol)

Compound | survival
COc1ccc(-c2nc(CS(=O)CC(=O)NCCc3ccccc3)c(C)o2)cc1OC (stereo not given) | inactive: 91%
CC1CCCCN1c1c(S(=O)(=O)c2ccc(Cl)cc2)cnc2ccccc12 (stereo not given) | inactive: 102%
Cc1ccc(CCNC(=O)c2sc3ncccc3c2-n2c(C)ccc2C)cc1 | inactive: 64%
CCC(=O)Nc1ccc(CC)cc1-c1nc2ccccc2n(CC(=O)Nc2cccc(OC)c2)c1=O | inactive: 67%
Cc1ccccc1NC(=O)c1c(NC(=O)c2ccccc2)sc2c1CCC2 | inactive: 126%
COc1ccc(-c2cn3nc(N4CCC(C(=O)Nc5ccccc5OC)CC4)sc3n2)cc1 | inactive: 68%
Fc1cccc(-c2cc3nc4c(c(NCCCN5CCOCC5)n3n2)CCCC4)c1 | inactive: 100%
CCN(CC)C(=O)c1sc2c(c1C)c(=O)n(-c1ccccc1)c(=O)n2Cc1c(C)cc(C)cc1C | inactive: 79%
Cn1c(SCC(=O)NC(C)(C)C)nc2cccnc21 | inactive: 80%
CCOc1ccc(NC(=O)CC2C(=O)N(c3ccccc3)C(=O)N2CCc2cccs2)cc1 (stereo not given) | inactive: 54%
Cc1ccc(Cl)cc1-n1nnc(-c2nsc(NC(=O)c3ccccc3Cl)n2)c1C | active: 6%
COc1ccc(OC)c(NC(=O)CCCc2nnc3n(C(C)C)c(=O)c4sccc4n23)c1 | inactive: 74%
Cc1ccc(C)c(N2CCN(C(=O)c3cnn(C(C)(C)C)c3C3CCN(C(=O)OC(C)(C)C)CC3)CC2)c1 | inactive: 91%
Cc1ccc2oc(C(=O)Nc3ccc(S(=O)(=O)N4CCCC(C)C4)cc3)cc(=O)c2c1 (stereo not given) | inactive: 69%
CCc1ccc(-n2c(=O)c3ccccc3n(CC(=O)NCCc3ccc(OC)c(OC)c3)c2=O)cc1 | inactive: 91%
COc1ccc(Cl)cc1NC(=O)NCCn1c(=O)oc2ccc(C)cc21 | active: 46%
COc1ccc(C)cc1NC(=O)N1CCC(CN2CCOCC2)CC1 | inactive: 71%
Cc1ccc(N(CC(=O)N2CCN(c3cccc(Cl)c3)CC2)S(=O)(=O)c2c(C)noc2C)cc1 | inactive: 73%
COc1ccc(NC(=O)C(Cc2c[nH]c3ccccc23)NC(=O)OC(C)(C)C)cc1 (stereo not given) | inactive: 48%
Cc1ccn2c(Nc3c(C)cccc3C)c(-c3ccsc3)nc2c1 | active: 35%
COc1ccc(N2CC(NC(=O)c3cccs3)CC2=O)cc1 (stereo not given) | inactive: 89%
N#Cc1c[nH]n2c(=O)cc(Cc3ccccc3)nc12 | inactive: 68%
O=C(CSc1nc(=O)[nH]c2c1CCCC2)Nc1ccc(Cl)c(Cl)c1 | inactive: 99%

Compound | survival
CC1(C)Cc2c(ccc3ccccc23)CN1 | inactive: 108%
CCN(CC)CC(=O)Nc1sc2c(c1C#N)CCCC2 | inactive: 76%
COC(=O)/C(C#N)=C/c1ccc(C)s1 | inactive: 69%
CC(C)C(NS(=O)(=O)c1ccc2c(c1)oc(=O)n2C)C(=O)N1CCN(c2cccc(Cl)c2)CC1 (stereo not given) | inactive: 101%
CCN(CC)C(=O)c1ccc2c(c1)N(Cc1c(F)cccc1Cl)C(=O)c1ccccc1S2 | inactive: 73%
COc1ccc(CNC(=O)c2nc(SCc3ccc(C)cc3)ncc2Cl)cc1 | inactive: 67%
CCc1nnc(NC(=O)CSc2nccn2Cc2ccc(C)cc2)s1 | inactive: 78%
COc1ccccc1NC(=O)CSc1nc(O)c(C/C=C/c2ccccc2)c(=O)[nH]1 | inactive: 89%
COc1ccc(Cn2c(=O)n(-c3ccc(F)c(Cl)c3)c(=O)c3c2c2cc(OC)ccc2n3C)cc1 | inactive: 86%
CCOC(=O)c1c(S(=O)(=O)N2CCC(C(=O)NCc3cccc(C)c3)CC2)c(C)n(C)c1C | inactive: 94%
O=C(O)CCC(=O)Nc1ccc2c(c1)oc1ccccc12 | inactive: 86%
CCOc1cccc2sc(N3CCN(C(=O)c4ccc5c(c4)CCCC5)CC3)nc12 | inactive: 60%
Cc1cc(N2CCN(C)CC2)nc2ccc(NC(=O)c3ccc(C(C)(C)C)cc3)cc12 | active: -3%
CCN(CC)S(=O)(=O)c1ccc(NC(=O)c2cc3ccc4cccnc4c3[nH]2)cc1 | inactive: 89%
CN(Cc1ccccc1)c1nnc(NC(=O)Nc2cccc(Br)c2)s1 | inactive: 97%
Cc1ccc(-n2nc(C(=O)Nc3ccc(F)cc3Cl)c(=O)n(C)c2=O)cc1 | inactive: 69%
Cc1ccc(C(=O)n2nc(C)c(S(=O)(=O)N3CCCCCC3)c2C)cc1C | inactive: 61%
CCC(C)N1CCN(C2CCCCC2)CC1 (stereo not given) | inactive: 81%
COc1ccccc1-c1cc(C(F)(F)F)nc(S(=O)(=O)CCCC(=O)Nc2cc(Br)ccc2O)n1 | active: 45%
O=C(NCCc1ccccc1)C(=O)NCC(c1cccnc1)N1CCN(c2ccc(F)cc2)CC1 (stereo not given) | inactive: 103%
CCC(=O)N1CCc2cc(CNC(=O)Nc3ccc(OC)cc3OC)ccc21 | inactive: 71%
O=C(NC1CCCC1)C(c1ccccc1)N(C(=O)c1ccco1)C1CCCC1 (stereo not given) | inactive: 79%
CC(=O)c1ccc(NC(=O)Cn2c3ncccc3c(=O)n2-c2ccc(C)cc2)cc1 | inactive: 112%

Compound | survival
COc1ccc(NC(=O)c2cnc(SCC(=O)Nc3nc4ccc(C)cc4s3)n(C)c2=O)cc1 | inactive: 74%
CCc1ccc(C2C(C(=O)Nc3ccccc3)=C(C)Nc3nc(SCC(=O)c4ccc(C)cc4)nn32)cc1 (stereo not given) | inactive: 55%
CC(C)C(=O)N(C)c1nnc(-c2ccc(F)cc2)s1 | inactive: 108%
O=C(c1ccco1)c1cn(CCOc2ccc(Cl)cc2)c2ccccc12 | inactive: 78%
Cc1ccc(-c2noc(CSc3nnc(-c4ccc(Cl)cc4)n3C)n2)cc1 | inactive: 72%
Cc1ccc(S(=O)(=O)NCc2cccnc2)cc1 | inactive: 73%
O=C(c1cccs1)N1CCCc2cc(NS(=O)(=O)c3ccc(Cl)cc3)ccc21 | inactive: 93%
COc1ccc(C(CNC(=O)c2ccc(C)cc2)N2CCOCC2)cc1 (stereo not given) | inactive: 82%
CCN(CC)C(=O)c1sc(NC(=O)C2c3ccccc3Oc3ccccc32)c(C(=O)OC(C)C)c1C | active: 30%
c1ccc2oc(CCc3nc4ccccc4o3)nc2c1 | inactive: 88%
CN(C)c1ccc(C(CNS(=O)(=O)c2cc(F)ccc2F)N2CCOCC2)cc1 (stereo not given) | inactive: 117%
Cc1cc(C)c(Cn2c(=O)n(CCCCCC(=O)NCc3ccc4c(c3)OCO4)c(=O)c3sccc32)c(C)c1 | inactive: 97%
COc1cccc(NC(=O)Cn2c(=O)n(-c3cccc(OC)c3)c(=O)c3c4c(sc32)CCCC4)c1 | inactive: 107%
COc1ccc(NS(=O)(=O)c2ccc3[nH]c4c(c3c2)CCCC4)c(OC)c1 | inactive: 82%
CCOc1ccc(Nc2nc3ccccc3c3nnc(CC)n23)cc1 | inactive: 62%
O=C(NCc1ccco1)C1C2C3CCC(C3)C12 (stereo not given) | inactive: 77%
CC(C)OC(=O)c1cc(=O)[nH]c2ccccc12 | inactive: 97%
COc1ccc(NC(=O)C2CCN(S(=O)(=O)c3c(C)noc3/C=C/c3ccco3)CC2)cc1 | inactive: 115%
CCN(C(=O)CN(C)S(=O)(=O)c1ccc2c(c1)n(C)c(=O)c(=O)n2C)c1cccc(C)c1 | inactive: 109%
Cn1c(=O)c2c(SCC(=O)NCc3ccco3)nc(-c3ccccc3F)nc2n(C)c1=O | inactive: 93%
Cc1ccc(NC(=O)Nc2cc3c(cc2N2CCCCC2)n(C)c(=O)n3C)cc1Cl | inactive: 99%
O=C(O)CNC(=O)c1cncc(O)c1 | inactive: 86%
COc1ccc(NC(=O)CC2C(=O)N(c3ccccc3)C(=O)N2Cc2cccnc2)cc1 (stereo not given) | inactive: 94%

Compound | survival
O=C(O)C1CC(=O)N(c2cccc(Cl)c2)C1 (stereo not given) | inactive: 71%
Cc1ccc(CN(C(=O)c2ccccc2Br)C2CCS(=O)(=O)C2)o1 (stereo not given) | inactive: 97%
CC1CCC(NC(=O)c2ccc3c(c2)N(Cc2cccc(Cl)c2)C(=O)c2ccccc2S3=O)CC1 (stereo not given) | active: 25%
COc1ccc(OCc2nc3ccccc3n2C(C)C)cc1 | inactive: 88%
O=C(NCc1ccc(Cl)cc1)C(=O)Nc1cccc(Br)c1 | inactive: 133%
O=C(Nc1ccc2oc(-c3ccc4ccccc4c3)nc2c1)c1cc(Br)ccc1Cl | inactive: 75%
Cc1ccc(-n2nc(-c3ccc(F)cc3)c3cnc4cc5c(cc4c32)OCO5)cc1C | inactive: 82%
O=C(CNS(=O)(=O)c1ccccc1)Nc1ccc2c(c1)OCO2 | inactive: 100%
CCc1ccc(NC(=O)CC(c2ccc(C)cc2)N2Cc3ccccc3C2=O)cc1 (stereo not given) | inactive: 112%
O=C1C2CCCN2C(=S)N1C1CCCCC1 (stereo not given) | inactive: 109%
COc1ccc(NC(=O)c2oc3ccc(S(=O)(=O)N(C)C4CCCCC4)cc3c2C)cc1Cl | inactive: 71%
O=C(CCC1CCCCC1)Nc1ncn[nH]1 | inactive: 71%
CCc1ccc(-c2cc(C)no2)cc1S(=O)(=O)N1CCN(c2cccc(Cl)c2)CC1 | inactive: 89%
Cc1c(C(=O)Nc2ccc(Br)cc2F)oc2ccc(S(=O)(=O)N3CCC4(CC3)OCCO4)cc12 | inactive: 81%
COc1cccc(-n2c(=O)c3c4c(sc3n(Cc3ccc(F)cc3Cl)c2=O)CCCC4)c1 | inactive: 140%
O=C(CCCc1nc(-c2ccco2)no1)Nc1ccccc1[N+](=O)[O-] | inactive: 83%
CCOC(=O)c1ccc(NC(=O)c2c(C)oc3nc(C)nc(N4CCCC4)c23)cc1 | inactive: 75%
CC(=O)Nc1c(C(=O)Nc2cccc(C)c2)nnn1-c1ccc(C)cc1 | active: 69%
CCC1CCCCN1S(=O)(=O)c1ccc(N2CCCCS2(=O)=O)cc1 (stereo not given) | inactive: 75%
COc1ccc(-c2[nH]ncc2C(=O)NCc2cccc(F)c2)cc1 | inactive: 86%
COc1ccc(C2=NN(C(C)=O)C(c3cn(-c4ccccc4)nc3-c3cccs3)C2)cc1 (stereo not given) | inactive: 152%
